B1: Aph-1αL-HA H171K (natural protein)
chain: not shown
B2: Aph-1αL-HA H197K (natural protein)
chain: not shown
B3: Aph-1αL-HA H171K/H197K (natural protein)
chain: not shown

These binders were tested against full-length β-amyloid precursor protein (FL APP) (human, UniProt P05067) (assay: co-IP).

In order of rising “Aph-1 co-immunoprecipitated with APP, % of WT” value:
1. B3  27 % of WT
2. B2  52 % of WT
3. B1  59 % of WT
